The values below come from publication PMC4336329 (PLoS ONE, 2015).

The campaign covered roughly 310,000 compounds. About 2,200 (0.71%) showed an effect of 50% or more. The effect is printed as a negative number. This is one part of the list.

Chain of human ether-à-go-go-related gene (hERG) potassium channel (Q12809 whole entry, looked up): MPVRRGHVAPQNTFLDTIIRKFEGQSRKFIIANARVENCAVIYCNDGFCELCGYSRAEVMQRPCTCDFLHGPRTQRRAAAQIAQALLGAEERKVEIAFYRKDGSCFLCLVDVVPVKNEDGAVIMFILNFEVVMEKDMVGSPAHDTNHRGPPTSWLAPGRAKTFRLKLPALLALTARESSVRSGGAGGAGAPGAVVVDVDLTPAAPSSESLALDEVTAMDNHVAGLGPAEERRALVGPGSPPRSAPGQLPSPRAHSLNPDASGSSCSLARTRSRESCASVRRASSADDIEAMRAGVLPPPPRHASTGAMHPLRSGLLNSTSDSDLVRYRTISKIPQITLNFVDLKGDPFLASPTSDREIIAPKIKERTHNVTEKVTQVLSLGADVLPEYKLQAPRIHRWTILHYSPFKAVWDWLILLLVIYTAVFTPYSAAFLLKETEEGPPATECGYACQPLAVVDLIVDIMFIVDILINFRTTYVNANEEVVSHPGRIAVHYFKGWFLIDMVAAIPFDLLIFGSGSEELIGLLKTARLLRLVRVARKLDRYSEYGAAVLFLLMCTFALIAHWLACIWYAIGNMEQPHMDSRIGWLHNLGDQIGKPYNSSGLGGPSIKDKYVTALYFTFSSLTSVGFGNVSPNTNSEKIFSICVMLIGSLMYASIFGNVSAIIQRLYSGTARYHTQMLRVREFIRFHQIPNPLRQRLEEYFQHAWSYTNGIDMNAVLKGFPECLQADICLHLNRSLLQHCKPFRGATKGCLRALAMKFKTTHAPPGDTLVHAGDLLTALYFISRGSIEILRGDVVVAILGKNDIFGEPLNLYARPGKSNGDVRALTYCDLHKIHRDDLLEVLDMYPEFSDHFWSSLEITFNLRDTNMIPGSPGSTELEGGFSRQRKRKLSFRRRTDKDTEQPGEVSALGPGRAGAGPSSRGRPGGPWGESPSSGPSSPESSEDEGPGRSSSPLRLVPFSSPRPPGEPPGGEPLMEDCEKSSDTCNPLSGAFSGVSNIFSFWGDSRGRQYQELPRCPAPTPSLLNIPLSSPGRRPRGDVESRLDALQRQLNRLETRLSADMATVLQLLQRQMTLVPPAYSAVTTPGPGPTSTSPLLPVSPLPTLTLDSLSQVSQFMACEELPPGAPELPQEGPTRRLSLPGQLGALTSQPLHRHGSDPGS

This assay addresses human ether-à-go-go-related gene (hERG) potassium channel (human, UniProt Q12809). In words: primary screen, population patch clamp on CHO cells stably expressing hERG.
For the molecule `COc1cc(C2C(C(=O)Nc3ccc(F)cc3)=C(C)Nc3nc(CCCO)nn32)cc(OC)c1OC` (stereo not shown), the “hERG current change (%, negative = inhibition) at 1uM” value was 8.13%. `COc1ccccc1NC(=O)C1CCN(S(=O)(=O)c2ccc3c(c2)CC(C)N3C(C)=O)CC1` (stereo not shown): the “hERG current change (%, negative = inhibition) at 1uM” value is 9.78%. In the case of `COc1ccccc1NS(=O)(=O)c1cccc(C(=O)OCC(=O)NC2CC2)c1`, the “hERG current change (%, negative = inhibition) at 1uM” value was determined as 16.8%.

As for `COc1ccc(CN2CCC(n3nccc3NC(=O)C3CCCC3)CC2)c(OC)c1`, the “hERG current change (%, negative = inhibition) at 1uM” value is given as -70.6%. Turning to `CSc1ccc(CNC(C)(C)CO)cc1.Cl`, the “hERG current change (%, negative = inhibition) at 1uM” value is -2.43%.

Regarding `O=C(Nc1ccccc1F)C1COc2ccccc2O1` (stereo not shown), the “hERG current change (%, negative = inhibition) at 1uM” value is on record as 13.9%. Next, `COC(=O)c1c(NC(=O)COC(=O)CCNS(=O)(=O)c2ccc(NC(C)=O)cc2)sc(C)c1C`: 5%. Consider `C=CCN1C(=O)c2oc3ccccc3c(=O)c2C1c1ccc(O)c(OC)c1` (stereo not shown), for which the “hERG current change (%, negative = inhibition) at 1uM” value turned out to be 4.84%.

Take `COc1ccc2[nH]c(C)c(CCN3C(=O)OC(C)(C)C3(C)O)c2c1` (stereo not shown): the “hERG current change (%, negative = inhibition) at 1uM” value is recorded as 11.6%. Take `Cc1ncc(CN2CCCC(C(=O)c3sccc3C)C2)s1` (stereo not shown): the “hERG current change (%, negative = inhibition) at 1uM” value was determined as 12.5%. Next, `O=C1OCCN1CCN(CN1C(=O)CCC1=O)CN1C(=O)CCC1=O`: 8.43%. Next, `O=C(C1CCN(S(=O)(=O)N2CCC3(CC2)OCCO3)CC1)N1CCOCC1`: 19.6%; `COc1ccc2c(-c3ccccc3)cc(=O)[nH]c2c1`: 2.58%. Then `COc1ccc(C(=O)N2CCc3cc(OC)c(OC)cc3C2c2ccc(OC)c(OC)c2)cc1OC` (stereo not shown), with 12.1%. On to `O=C(Cn1cnc2c(cnn2-c2ccc(Cl)cc2)c1=O)NCCc1ccccc1`, for which the “hERG current change (%, negative = inhibition) at 1uM” value amounted to 13.8%. Then `Cc1ccc(CN2CCCN(C)CC2)c(C)c1`, with 9.13%. Next, `Cc1cc(OCC(=O)N2CCC(C(N)=O)CC2)c2c3c(c(=O)oc2c1)CCCC3`: 1.1%; `Cc1ccc(NC(=O)COC(=O)c2ccc3c(=O)n4c(nc3c2)CCC4)c(Br)c1`: 12.3%. Take `CN(CCC1CCOCC1)C(=O)C1CCC(=O)N(CCc2ccccc2)C1` (stereo not shown): the “hERG current change (%, negative = inhibition) at 1uM” value is listed as -3.88%. As for `CSc1ccccc1C(=O)N1CCC(CCC(=O)NCc2ccc(F)cc2)CC1`, the “hERG current change (%, negative = inhibition) at 1uM” value is given as 5.09%.

Take `CCOC(=O)C(NC(=O)Cc1ccccc1)(Nc1cc(C)on1)C(F)(F)F` (stereo not shown): the “hERG current change (%, negative = inhibition) at 1uM” value came out at 7.59%. `O=C(COC(=O)/C=C/c1ccc(F)cc1)Nc1ccccc1-c1ccccc1`: the “hERG current change (%, negative = inhibition) at 1uM” value is 13.2%. Turning to `Cc1cc(N2C(=O)C3CC=CC(C)C3C2=O)no1` (stereo not shown), the “hERG current change (%, negative = inhibition) at 1uM” value was found to be 7.98%. Next, `CC(NC(=O)CN1C(=O)NC2(CCCCCC2)C1=O)c1ccccc1Cl` (stereo not shown): 4.85%. As for `COc1ccc(/C=C/C2=CCN(C)CC2)cc1.Cl`, the “hERG current change (%, negative = inhibition) at 1uM” value is listed as 2.47%. Next, `COc1ccc(OC(=O)CN2C(=O)C3C4CCC(C4)C3C2=O)cc1` (stereo not shown): 12.4%.

On to `CCn1c(COc2cccc(C)c2)nnc1SCC(=O)Nc1cccc(C(=O)OC)c1`, for which the “hERG current change (%, negative = inhibition) at 1uM” value is 13.6%.

Regarding `Cn1cc(S(=O)(=O)NCc2cccs2)c(=O)n(C)c1=O`, the “hERG current change (%, negative = inhibition) at 1uM” value turned out to be 8.34%. Then `O=C(O)c1ccccc1-n1c(-c2ccccc2)cc2c1CCCC2=O`, with 9.19%; and `S=C(NCc1ccc(Cl)cc1)Nc1ccc(Cl)cc1Cl`, with 12%. Then `COc1ccc(CCNCc2ccccc2F)cc1OC.Cl`, with 7.24%; and `Cc1nc(N2CCN(Cc3ccccc3)CC2)c(C#N)c2c1COC(C)(C)C2`, with 12.7%; and `CCOC(=O)C1CN(S(=O)(=O)c2ccc(C)cc2)c2ccccc2O1` (stereo not shown), with 18.3%.

For the molecule `COc1cccc(CN2CCc3[nH]c(=S)[nH]c(=O)c3C2)c1`, the “hERG current change (%, negative = inhibition) at 1uM” value came to 7.18%. Turning to `COC(=O)C(Cc1ccc(O)cc1)NC(=O)CCC(=O)Nc1ccc(S(N)(=O)=O)cc1` (stereo not shown), the “hERG current change (%, negative = inhibition) at 1uM” value was determined as 7.5%. Next, `O=C(O)CCC(=O)N1N=C(c2ccc(Br)cc2)CC1c1cccc(Br)c1` (stereo not shown): 11.3%; `CN(C)S(=O)(=O)c1cccc(COc2cccnc2[N+](=O)[O-])c1`: 3.18%. Then `COc1ccccc1N(C)S(=O)(=O)c1ccc(C(=O)NC(C)(C)C)cc1`, with 6.73%; and `C/C=C(\C)C(=O)NCCN1C2=NC[C@@H](C)N2C[C@@H]1Cc1ccc(OC)cc1`, with 11.4%; and `CCCc1nnc(NC(=O)CCC(=O)NC2CCCC2)s1`, with 13.9%.

For the molecule `COc1cccc(CN(C(=O)Cc2c[nH]c3ccccc23)C(C(=O)NC2CCCCC2)c2cccs2)c1` (stereo not shown), the “hERG current change (%, negative = inhibition) at 1uM” value was 22.7%. With `COc1cccc(/C=N/c2nc3ccccc3n2C)c1O`, the “hERG current change (%, negative = inhibition) at 1uM” value was 11.2%. Then `CC1CC(C)CN(C(=O)COC(=O)c2ccc3ncsc3c2)C1` (stereo not shown), with -0.416%.
